Test results taken from the RNAGym collection of RNA variant scans (doi:10.1073/pnas.2313332121).
Variants at the floor of the assay are shown more often than the library holds them.

B1: TPR 5TU (parent)
chain: GGAUCUUCUCGAUCUAACAAAAAAGACAAAUCUGCCACAAAGCUUGAGAGCAUCUUCGGAUGCAGAGGCGGCAGCCUUCGGUGGCGCGAUAGCGCCAACGUUCUCAACUAUGACACGCAAAACGCGUGCUCCGUUGAAUGGAGUUUAUCAUG

Variants of: B1
Assay: polymerase ribozyme fitness, log enrichment relative to wild type (log ratio); higher = more active; in vitro selection for triplet polymerase activity
Outline: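 Fitness is a logarithmic measure of how a genotype enriched relative to the wild type, with replicate averages weighted by inverse variance. The logarithm uses base 2, and enrichment came from Illumina sequencing of input and output libraries. Those libraries were PCR-built, transcribed mutants of each subunit of a heterodimeric triplet polymerase ribozyme, passed through one triplicate in vitro selection round that included frozen incubation at −7 °C, gel excision of extended constructs and streptavidin-bead capture. Genotypes were kept only if they had ≥10 input reads and ≥1 read per output.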

Variant | polymerase ribozyme fitness (log ratio)
C76G U144G U146A C149U | ≤ -4.2
C76G U151G | ≤ -4.2
C76U A91U U145A | ≤ -4.2
C76U A119C C123U | 0.258
C76U A121U | 0.67
C76U C79G A89C C96U A97C A115G | ≤ -4.2
C76U C79G C87A | ≤ -4.2
C76U C85A G136C | ≤ -4.2
C76U C85U A138C U144A | ≤ -4.2
C76U C87A A91G A107U G126A U145A | ≤ -4.2
C76U C87G G140U | ≤ -4.2
C76U C93G G124A C132A | ≤ -4.2
C76U C93U C105U | -0.938
C76U C95U U135C C149A | ≤ -4.2
C76U C99G | -0.789
C76U C116G | 0.541
C76U G83U G84U C123U | -2.49
C76U G86A | -0.246
C76U G88C | ≤ -4.2
C76U G88U C118G G124C C149A | ≤ -4.2
C76U G136A G140A | ≤ -4.2
C76U U77G G81U G92A C123A | ≤ -4.2
C76U U78C A106C | -1.92
C76U U101A | -1.35

Variant | polymerase ribozyme fitness (log ratio)
U77A A98U C118U | ≤ -4.2
U77A C87U | ≤ -4.2
U77A C93A C116A C149U | ≤ -4.2
U77A C93U G94U A137U | ≤ -4.2
U77A C96A | ≤ -4.2
U77A G83A A115G U144G | ≤ -4.2
U77A G83C A91C | ≤ -4.2
U77A G83C U104C C123U U145C | ≤ -4.2
U77A G83U U144C | ≤ -4.2
U77A G84U A91C G94C C99G G141C | ≤ -4.2
U77A G84U C105U | ≤ -4.2
U77A G86C C96A | ≤ -4.2
U77A G86U C103U | ≤ -4.2
U77A G92A G124U | ≤ -4.2
U77A G92U C99G | -4.06
U77A G94C A98U | ≤ -4.2
U77A U82C G94U A142G G143C | ≤ -4.2
U77C A107G A122G A138U U146C U148G A150U | ≤ -4.2
U77C C79U C132A | ≤ -4.2
U77C C85A C99U | ≤ -4.2
U77C C85A U102G C114A C125A U127A G136A | ≤ -4.2
U77C C85G A89G A120C | ≤ -4.2
U77C C85U C93A C108G G143A | ≤ -4.2
U77C C87U G126A | ≤ -4.2

Variant | polymerase ribozyme fitness (log ratio)
U77C C95U G141A | ≤ -4.2
U77C G83C | ≤ -4.2
U77C G84C C114A | ≤ -4.2
U77C G92U C105G G128U | ≤ -4.2
U77C U82G A91G A98G U148C | ≤ -4.2
U77C U151C | ≤ -4.2
U77G A89C U104C | ≤ -4.2
U77G A91U A97U | ≤ -4.2
U77G A91U A107U C149A | ≤ -4.2
U77G A107G | ≤ -4.2
U77G A113U | ≤ -4.2
U77G C79G G83C | ≤ -4.2
U77G C87A C95A A110U | ≤ -4.2
U77G C87U U144G | ≤ -4.2
U77G C93U U104G C108U G136C | ≤ -4.2
U77G C95U | ≤ -4.2
U77G C103A C105G A120C | ≤ -4.2
U77G G84A | ≤ -4.2
U77G G84A G117U U135G | ≤ -4.2
U77G G84C C96G C103A A137C | ≤ -4.2
U77G G84U G86A G94U A97G G128A C132G A137C C149G | ≤ -4.2
U77G G92A C103G C105A A107U G124U G143A | ≤ -4.2
U77G G92U | -3.92
U77G G92U U134G | ≤ -4.2

Variant | polymerase ribozyme fitness (log ratio)
U77G G94A | ≤ -4.2
U77G U78G | ≤ -4.2
U77G U82A | ≤ -4.2
U77G U102A | ≤ -4.2
U77G U148A | ≤ -4.2
U78A A91U A138C | ≤ -4.2
U78A C79U U82A G94U C96G G126A G141U | ≤ -4.2
U78A C93U | ≤ -4.2
U78A G81C G94C | ≤ -4.2
U78A G83A C114U A137C | ≤ -4.2
U78A G88C U104C | ≤ -4.2
U78A G143A | ≤ -4.2
U78A U130A A142C | ≤ -4.2
U78C A107U A119U A147C | ≤ -4.2
U78C C79G G83C A97U A121U | ≤ -4.2
U78C C85U A113C U135G | ≤ -4.2
U78C C93G C103U A120G | ≤ -4.2
U78C C149A | ≤ -4.2
U78C G84A G136U | -3.14
U78C G92U C114A | ≤ -4.2
U78G A97G U104A | ≤ -4.2
U78G A98U A142U | ≤ -4.2
U78G C85G G140A | ≤ -4.2
U78G C85U U104C A107C C149U | ≤ -4.2

Variant | polymerase ribozyme fitness (log ratio)
U78G C96U A107U G141C A150G | ≤ -4.2
U78G C99G G117A | ≤ -4.2
U78G C99U | ≤ -4.2
U78G G86A A91G C103G G143U | ≤ -4.2
U78G G86U | ≤ -4.2
U78G G117U G133C | ≤ -4.2
C79A A97G A150G | ≤ -4.2
C79A A115G G143A | ≤ -4.2
C79A C85A C116G | ≤ -4.2
C79A C85U C96A G143C | ≤ -4.2
C79A C87G A113G | ≤ -4.2
C79A C87G G100U U130G | ≤ -4.2
C79A C93U | ≤ -4.2
C79A C96U A97G C116G A138G | ≤ -4.2
C79A C96U C108U | ≤ -4.2
C79A C99U | ≤ -4.2
C79A C103A A107C | ≤ -4.2
C79A G80U | ≤ -4.2
C79A G83U C85A U127C G141C | ≤ -4.2
C79A G84A A120U U127C U144C | ≤ -4.2
C79A G84A A147G | ≤ -4.2
C79A G84U | ≤ -4.2
C79A G92U G100U C131A A137C U148G | ≤ -4.2
C79A G94A A113G C149U | ≤ -4.2

Variant | polymerase ribozyme fitness (log ratio)
C79G A89C A110G | ≤ -4.2
C79G C85G | ≤ -4.2
C79G C87A C125U G136C A150G | ≤ -4.2
C79G C103G C131U U135A G136C A147U | ≤ -4.2
C79G C118U A142C | ≤ -4.2
C79G G83A A89U C95U C96U C99G G141A | ≤ -4.2
C79G G83A C123U A142G | ≤ -4.2
C79G G84A G94C G136C A138G A150G | ≤ -4.2
C79G G88C A150G | ≤ -4.2
C79G G88U C95A C96A C116A | ≤ -4.2
C79G G94A U111G | ≤ -4.2
C79G U82A C87U C103A | ≤ -4.2
C79G U82A C87U C103A G133U | ≤ -4.2
C79U A89C | -3.38
C79U A89G C93A G126U | ≤ -4.2
C79U A91U C95G A113C A120C G152A | ≤ -4.2
C79U A91U C103G U135A | ≤ -4.2
C79U A119U G124A G152U | ≤ -4.2
C79U C85A U146C G152U | ≤ -4.2
C79U C85G | ≤ -4.2
C79U C85G A138G | ≤ -4.2
C79U C85G C95A | ≤ -4.2
C79U C85G C118A | ≤ -4.2
C79U C87A A98G | ≤ -4.2

Variant | polymerase ribozyme fitness (log ratio)
C79U C87U U90C C105U | ≤ -4.2
C79U C93A A98G C103U | ≤ -4.2
C79U C93A C99A G126A G141U | ≤ -4.2
C79U C93G | ≤ -4.2
C79U C93U G141A | ≤ -4.2
C79U G80A C99G U135G | ≤ -4.2
C79U G88U A97U G124A | ≤ -4.2
C79U G88U U127G U144A | ≤ -4.2
C79U G100A A115G G128C A137C G140U | ≤ -4.2
C79U G100A G141U G143A | ≤ -4.2
C79U U109G C114U A115G G124C G133C | ≤ -4.2
C79U U134A | -4.05
G80A | -0.0737
G80A A91C A120G | ≤ -4.2
G80A A98C | -2.19
G80A C85G | -1.38
G80A C85U C103G G117U G124U A142G | ≤ -4.2
G80A C87A A110U A120U A121U | ≤ -4.2
G80A C87A A150C | ≤ -4.2
G80A C99A U146C U148A G152U | ≤ -4.2
G80A C99U C108G G141U | ≤ -4.2
G80A C108A G140A | ≤ -4.2
G80A G84A C116A U135G | ≤ -4.2
